Results as given in publication PMC12136788.
Some of the results follow.

B1: chr15:38484694:38484795:+|3pUTR|ENSG00000171262|unk|total|mutant (ssRNA)
RNA: GGGAGUUCUACAGUCCGACGAUCAUCCGAAACCGUGUUCCAAAUAACAUACUUGAAUAUCAUCUUUGAAGUAAACACCAUGUCCGACUCCCUGGUGAUACCACUCUUGAAUUGGUUAAUAUGUAAGAACAUUGUUUUUUAUUACAACAGAGGAUUGAGCAUCA
B2: chr15:59095394:59095499:+|3pUTR|ENSG00000157450|unk|total|mutant (ssRNA)
RNA: GGGAGUUCUACAGUCCGACGAUCUAAAUACCAUCCUUAAUACUGGGAACAGAAUACAACCCAUAUAAAUCAGAUGCAGGUGGCCGUCACAUCACCAGAGUGAUCAGUAUAAAUUUUCUUGGUGUAUCCUUUUCCUUUCAACACCAACAGAGGAUUGAGCAUCA
B3: chr2:135868693:135868794:-|CDS|ENSG00000076003|msi1|total|mutant (ssRNA)
RNA: GGGAGUUCUACAGUCCGACGAUCCCCAGAGCUUGUGAGCGGAACUUUUCUGUGCUUGGACUGUCAGACAGUGAUCAGGGAUGCCGAACAGCAGUUCAAAUACACACAGCCAAACAUCUGCCGAAAUCCAGUUUGUGCCAACAGCAACAGAGGAUUGAGCAUCA
B4: chr4:41958937:41959038:+|3pUTR|ENSG00000109133|msi1|FALSE|unique (ssRNA)
RNA: GGGAGUUCUACAGUCCGACGAUCUCUUGAACUCCUGGCCUCAAGUGAUCUGCCCGCCUCGACCUCCCAGAGUGCUGGGAUUAUAGGUGUGAGCCACUAAGCCUGGCUGAGACAACUAGUUUCCCUUAACUCAUUGGAAUUCUCCAACAGAGGAUUGAGCAUCA
B5: chr15:38470281:38470388:+|CDS|ENSG00000171262|unk|total|mutant (ssRNA)
RNA: GGGAGUUCUACAGUCCGACGAUCCUUCAAGCUUCACAGAUAUUACAGAACAAGAAACAUAAAAAUUCUCAAUCCGAUAAAAACCGUGAAGUUUAUCAGGAAGUUCAAGCUAUGUUUGAUACACUUGGUAUACCCAAGUCAACACAACAGAGGAUUGAGCAUCA
B6: chr7:30013596:30013706:-|3pUTR|ENSG00000106080|msi1|FALSE|unique (ssRNA)
RNA: GGGAGUUCUACAGUCCGACGAUCUUAUAUUCAAUAUUUACUUCUUAAGGCUAGCGGAAUAUCCUUCCUGGUUCUUUAAUGGGUAGUCUAUAGUAUAUUAUACUACAAUAACAUUGUAUCAUAAGAUAAAGUAGUAAACCAGUCCAACAGAGGAUUGAGCAUCA
B7: ENSG00000140939:stop:overlap|stop_codon|ENSG00000140939|stop_codon|NA|stop_codon (ssRNA)
RNA: GGGAGUUCUACAGUCCGACGAUCCGAGUCCGAAGAUUCCUGAAGGCCAGAGCUCUGACAGGCGGUGCCCCGCCCAUGCUGGAUAGGACCUGGGAUGCUGCUGGAGCUGAAUCGGAUGCCACCAAGGCUCGGUCCAGCCCAGUACAACAGAGGAUUGAGCAUCA
B8: chr10:128103381:128103482:-|CDS|ENSG00000148773|msi1|total|mutant (ssRNA)
RNA: GGGAGUUCUACAGUCCGACGAUCAACUGGCAGCAGGAGACGGCCAAGAGCACCCAGGGAAAGUGCCCAAGCCACCGAAGACCCCGCUGGCUUCAAAGACCCAGCAGCAGGUCACACUGAAGAAUCAAUGACUGAUGACAAAACCAACAGAGGAUUGAGCAUCA
B9: ENSG00000198589:be:win_1851|CDS|ENSG00000198589|bound_else_gene|NA|bound_elsewhere_windowed (ssRNA)
RNA: GGGAGUUCUACAGUCCGACGAUCCAUGCACACGCUGAAGUACUACUACUGGGCAGUGAAUCCUCAGGAUCGAAGUGGUAUCACCCCAAAAGGAUUAGAUGGACCGCGACCUAAUCAAAAAGAAAUGCUUUCUCUACGAGCAUUCAACAGAGGAUUGAGCAUCA
B10: chr1:88684422:88684524:+|5pUTR|ENSG00000065243|unk|FALSE|unique (ssRNA)
RNA: GGGAGUUCUACAGUCCGACGAUCUCGAUGAACCGGACGGAAUAAGCCGCGCCUCCAGCAGGGGCUGCGCCUCCAUGAAUCCCUAGUUGUUUUUUUUUUUUUCUUUCUCUCCCCUCUCCUCACCCCCACCCCGAGCCCCGUCCCCAACAGAGGAUUGAGCAUCA
B11: chr22:42796501:42797587:-|three_prime_utr|ENSG00000242247|control|control|control (ssRNA)
RNA: GGGAGUUCUACAGUCCGACGAUCGGAGAAAUUCCUCUUUAAAUGAACAAGUAACCACAUCUCAGGCGGCAGUGAAGUCCAGAUAGUUUUGCAGAUUGUUUUGCUACUUUUUCAUAUGGUAUAUGUUUCUGAUUUUUAAUAUUUCAACAGAGGAUUGAGCAUCA
B12: chr15:74955373:74955475:-|3pUTR|ENSG00000178718|unk|FALSE|unique (ssRNA)
RNA: GGGAGUUCUACAGUCCGACGAUCGGACAGUUUUCCUUUCUAGUUUUCUUUCCCCUGCUUCAGAGGAGCAUCUCUGAGGGUUCUAGCUCUUUUAACACCCCUUUUCCCCCUGCUGGCCCAGAGGGAGACCCAGGACUGAACUCUCAACAGAGGAUUGAGCAUCA
B13: chr5:43295829:43295944:-|CDS|ENSG00000112972|unk|total|mutant (ssRNA)
RNA: GGGAGUUCUACAGUCCGACGAUCAAUAUCCCCGCUUUAUUCUAAAGUCAAACUUUAAAAUUUCAUGGCUUAUAUGAAUUUCACCGUUUCCUUGGACUUCUCUUUCAGAGGGAAAUGAUAAAGAUUUUACCUUGAAUGAUUUUGCAACAGAGGAUUGAGCAUCA
B14: chr7:6691352:6691453:-|CDS|ENSG00000164631|unk|total|mutant (ssRNA)
RNA: GGGAGUUCUACAGUCCGACGAUCUACGAAUGUAAUGAAUGUGGAAAGUUAUUCUCCCAGUUGUCAUACCUCACUAUCCAUCACCGAACUCAUUCAGGAGUAAAACCCUAUGAAUGCCGUGAAUGUGGGAAAACCUUCUACCAGCAACAGAGGAUUGAGCAUCA

target: MSI1 full-length (mouse, UniProt Q61474 1-362); test: nsRBNS (natural sequence RNA bind-n-seq); RBNS binding buffer (assumed for nsRBNS): 25 mM Tris pH 7.5, 150 mM KCl, 3 mM MgCl2, 0.01% Triton X-100, 500 ug/ml BSA, 20 U/ml SUPERase-In, 4 C; UNK is unkempt and MSI1 is Musashi-1; names of the RNAs are library labels; protein concentration not given here; high values mean tight binding
Sequence of UniProt Q61474 (Q61474 whole entry): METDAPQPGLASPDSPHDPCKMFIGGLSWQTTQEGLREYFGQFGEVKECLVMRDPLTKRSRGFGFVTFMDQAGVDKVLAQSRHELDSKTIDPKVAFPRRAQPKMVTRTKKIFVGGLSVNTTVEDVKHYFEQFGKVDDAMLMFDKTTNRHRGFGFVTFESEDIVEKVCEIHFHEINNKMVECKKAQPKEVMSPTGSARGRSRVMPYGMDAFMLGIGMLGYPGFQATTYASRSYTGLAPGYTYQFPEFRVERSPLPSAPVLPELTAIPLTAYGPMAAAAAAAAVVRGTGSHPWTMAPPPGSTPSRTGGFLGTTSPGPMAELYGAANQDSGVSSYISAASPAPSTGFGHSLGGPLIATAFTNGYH

Row | Binder | binding signal [enrichment R]
1 | B1 | 0.321
2 | B2 | 0.576
3 | B3 | 0.443
4 | B4 | 0.442
5 | B5 | 0.182
6 | B6 | 8.22
7 | B7 | 0.41
8 | B8 | 0.41
9 | B9 | 0.391
10 | B10 | 1.95
11 | B11 | 1.45
12 | B12 | 1.16
13 | B13 | 0.344
14 | B14 | 0.294
